Patent US7652050B2, “Methods for increasing the survival of aquatic animals infected with an aquatic virus” (Laboratorio de Siagnóstico GAM S.A, priority 2001, dated 2010)

How the values were obtained:
CHSE-214 cells [1] = experiment: Cellular DNA synthesis, [methyl 3H] thymidine incorporation; conditions: CHSE-214, read-out: IC50, inhibitory concentration required to reduce [methyl 3H] thymidine incorporation by 50%, CHSE-214 cells, 20 hours at 15° C.
IPNV strain VR-299 = experiment: Virus plaque inhibition assay; type: cell-based, infectious pancreatic necrosis virus (IPNV); conditions: CHSE-214 cells, 3 days at 15° C., N.I.= Not inhibitory; for EC50: Infectious pancreatic necrosis virus, 72 h, read-out: EC50, effective antiviral concentration required to inhibit IPNV plaque formation by 50%
CHSE-214 cells [2] = experiment: Cytotoxic assay, cell viability by trypan blue exclusion; conditions: 15° C., three days
IPNV = experiment: Titration of viral progeny from infected CHSE-214 cells; type: cell-based, infectious pancreatic necrosis virus (IPNV); conditions: 4 μg/ml acivicin; without compound 3.7×10^8 pfu/ml

For COc1c(C)c2c(c(O)c1C/C=C(\C)CCC(=O)O)C(=O)OC2 [Myconhenolic Acid, 6-(4-hydroxy-6-methoxy-7-methyl-3-oxo-5-phthalanyl)-4-methyl-4-hexenoic acid], the IC50 (CHSE-214 cells [1]) was 1.8 µg/mL (≈ 5.62 µM).

In the case of Nc1nc2c(ncn2COCCO)c(=O)[nH]1 [Acyclovir, 9-(2-hydroxyethoxymethyl) guanine], the “EC100, effective antiviral concentration required to inhibit IPNV plaque formation by 100%” value (“EC100 … to inhibit IPNV plaque formation by 100%” below) (IPNV strain VR-299) is reported as “N.I”.

Nc1ncnc2c1ncn2CC(O)C(=O)O (centres unmarked) [AHPA, 3-adenine-9-yl-2-hydroxypropanoic acid] gave an EC50 (IPNV strain VR-299) of 30 µg/mL (≈ 134 µM).

For Nc1ncnc2c1ncn2C[C@H](O)CO [DHPA, (S)-9-(2.3-dihydroxypropyl) adenine], the “EC50, effective antiviral concentration required to inhibit IPNV plaque formation by 50%” value (IPNV strain VR-299) was 50 µg/mL (≈ 239 µM) and the “CC50, cytotoxic concentration required to reduce cell viability by 50%” value (CHSE-214 cells [2]) was 100 µg/mL (≈ 478 µM).

With N[C@H](C(=O)O)[C@@H]1CC(Cl)=NO1 [Acivicin, L (alpha S, 5S)-alpha-amino-3-chloro-4.5-dihydro-5-isoxazolacetic acid] the “Titer of viral samples from cells infected in the presence of the compound” value (IPNV) was 4.3×10^4 pfu/ml, the “EC100 … to inhibit IPNV plaque formation by 100%” value (IPNV strain VR-299) was 7 µg/mL and the EC50 (IPNV strain VR-299) was 4 µg/mL (≈ 22.4 µM). The “CC50, cytotoxic concentration required to reduce cell viability by 50%” value (CHSE-214 cells [2]) was >100 µg/mL.

For NC(=O)c1ncn([C@@H]2O[C@H](CO)[C@@H](O)[C@H]2O)n1 [Ribavirin], the “EC100 … to inhibit IPNV plaque formation by 100%” value (IPNV strain VR-299) was 1 µg/mL and the EC50 (IPNV strain VR-299) was 0.5 µg/mL (≈ 2.05 µM).

Converted amounts (≈) assume the structure as drawn.
